Assay results from the supplement of paper PMC3334620.
Whole data set: some 33,000 sequences, median “E-score (-0.5 to 0.5)” near -0.035, cut for the highest 2% near 0.35. Some of the results follow.

The sequences below were run against T1, Pdr3 (UniProt P33200) (assay: PBM E-score (8-mer binding enrichment) (E-score (-0.5 to 0.5)); higher = stronger / more preferred TF binding; most listed sequences are background and not binding sites). Details: protein concentration: 200 nM; construct: GST-full length.
T1 sequence: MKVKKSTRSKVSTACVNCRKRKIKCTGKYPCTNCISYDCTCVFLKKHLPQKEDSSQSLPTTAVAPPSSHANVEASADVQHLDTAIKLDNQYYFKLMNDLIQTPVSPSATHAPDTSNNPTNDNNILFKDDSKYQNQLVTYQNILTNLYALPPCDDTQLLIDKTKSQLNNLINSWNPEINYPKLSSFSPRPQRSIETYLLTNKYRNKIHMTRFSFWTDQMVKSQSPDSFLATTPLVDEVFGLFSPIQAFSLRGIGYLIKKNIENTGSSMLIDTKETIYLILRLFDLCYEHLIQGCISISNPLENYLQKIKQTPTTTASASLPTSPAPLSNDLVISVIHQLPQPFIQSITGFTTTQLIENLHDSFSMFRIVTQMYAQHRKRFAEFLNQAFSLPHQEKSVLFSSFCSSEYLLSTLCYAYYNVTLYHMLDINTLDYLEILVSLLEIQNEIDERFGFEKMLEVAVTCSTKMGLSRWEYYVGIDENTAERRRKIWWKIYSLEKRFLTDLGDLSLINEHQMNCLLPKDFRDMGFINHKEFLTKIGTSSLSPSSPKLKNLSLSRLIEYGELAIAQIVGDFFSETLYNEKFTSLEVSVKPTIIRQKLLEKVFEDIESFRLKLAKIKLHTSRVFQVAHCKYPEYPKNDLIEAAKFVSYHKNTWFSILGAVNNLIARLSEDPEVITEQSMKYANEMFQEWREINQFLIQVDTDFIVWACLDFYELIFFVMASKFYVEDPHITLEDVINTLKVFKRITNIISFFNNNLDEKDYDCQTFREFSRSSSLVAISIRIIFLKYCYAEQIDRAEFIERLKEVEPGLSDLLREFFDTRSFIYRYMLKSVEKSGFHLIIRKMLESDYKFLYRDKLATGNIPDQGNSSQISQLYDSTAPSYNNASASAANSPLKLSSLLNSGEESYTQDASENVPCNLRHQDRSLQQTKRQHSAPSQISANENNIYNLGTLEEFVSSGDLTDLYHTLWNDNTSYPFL
Experimental: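 Universal 'all 10-mer' protein binding microarrays (Agilent AMADID 015681) probed with GST-tagged S. cerevisiae TFs (full-length or DBD) made by in vitro transcription/translation (PURExpress), about 100-200 nM. Bound TF was detected with fluorescent anti-GST. Each ungapped 8-mer (which stands for itself and its reverse complement) is scored by the PBM enrichment score (E-score), a modified Wilcoxon-Mann-Whitney statistic from -0.5 to +0.5, computed with the Universal PBM Analysis Suite. Scale: above 0.35 generally sequence-specific binding.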

Row | Sequence | PBM E-score
1 | GCAGAGCC | -0.071
2 | CTATTGCC | -0.0815
3 | AACACTGA | 0.0985
4 | AACGGAAG | 0.423
5 | CCGTTCAA | 0.203
6 | GTAATCCA | -0.0176
7 | AGAATCAA | 0.00275
8 | CCGAAACC | -0.0197
9 | ACTCCATG | -0.0644
10 | CACGCTAG | -0.154
11 | AACTCATC | 0.0776
12 | GGGCTAAC | -0.148
13 | CGGCGTGC | 0.12
14 | CACAACCA | 0.0804
15 | TACATCAA | -0.104
16 | AGATTTGG | -0.159
17 | CCGACTCG | 0.05
18 | AAGCGGCG | 0.0462
19 | GAGTGGGC | -0.0819
20 | AATTCTGC | 0.117
21 | GCCAGCGA | -0.0413
22 | AGACCACT | -0.153
23 | AATAAGTC | -0.111
24 | AACTTATT | 0.141
25 | AACGGTTA | -0.0313

Row | Sequence | PBM E-score
26 | ACACTAGC | -0.0588
27 | ATGGGGCC | -0.161
28 | AACAGAGA | 0.0504
29 | CTATGTTC | 0.0801
30 | CAATGAAG | -0.282
31 | AATAGTAT | 0.2
32 | CCATCAAC | -0.0684
33 | CACTTCGC | -0.165
34 | GCCTGTAC | -0.0601
35 | CCGGCTCG | 0.331
36 | CGACGAGA | -0.127
37 | CATGAAAA | -0.0962
38 | GGGAACCC | 0.133
39 | AACTGTAG | -0.124
40 | AAGTATCC | 0.0359
41 | CGGACACG | 0.335
42 | AAATACAA | 0.0586
43 | CGGGGGTC | 0.00801
44 | ACAAACAA | -0.162
45 | CTGCATCC | 0.0477
46 | ATATATTC | 0.226
47 | CAGTCATC | -0.077
48 | CCACCTGC | 0.0368
49 | CCTTTCTC | -0.224
50 | CGTACCGA | 0.0195

Row | Sequence | PBM E-score
51 | TAGGTCAA | -0.167
52 | CGTAATAG | -0.0757
53 | ATAGTCTA | -0.226
54 | TCCGTCCA | 0.324
55 | CCTAATTA | -0.0268
56 | CCCCCATC | -0.128
57 | GTCCTTAA | -0.107
58 | AATCCGGC | 0.302
59 | CTCATTTC | -0.0257
60 | CGTGAACA | 0.149
61 | AATTAGGC | 0.0727
62 | ATATGTGC | 0.04
63 | ATTTGCCC | 0.167
64 | ACTGGTAC | 0.0483
65 | CGTCATGA | 0.0709
66 | ATACCGAG | 0.0196
67 | CATAGAGG | -0.176
68 | GCGGGTAA | 0.104
69 | AGCATTAT | -0.116
70 | GGCCGTAC | 0.16
71 | ACGAGGTC | -0.145
72 | ACCCGAAA | 0.155
73 | GGGTATTA | 0.187
74 | GGCCTTGA | 0.0147
75 | TCTTTCAA | -0.142

Row | Sequence | PBM E-score
76 | CTTTGACC | -0.018
77 | ACGTACCA | -0.274
78 | AATCTCTC | -0.0116
79 | GCATCGGA | 0.298
80 | CGGATTCA | 0.179
81 | GCTGAGGA | -0.132
82 | ACGGTTAG | -0.148
83 | TAACAGCA | 0.0507
84 | AATCCGAG | 0.216
85 | AGGAATGC | -0.0575
86 | AACAGCAC | 0.0734
87 | ATAGCAGC | -0.138
88 | AAATAAGT | -0.239
89 | ACCCTAGC | -0.0889
90 | ATACATAC | -0.0839
91 | GTAGTGGA | -0.0159
92 | ACCACTCG | 0.0931
93 | CCCTCCTC | -0.255
94 | AGTCTTTG | -0.326
95 | CCCAGTGC | 0.0503
96 | GATCGAAC | -0.0649
97 | CAAGTTTA | -0.122
98 | GCGGTTAC | 0.0864
99 | GTTTAGTA | -0.125
100 | AAGCTCTG | -0.25

Row | Sequence | PBM E-score
101 | CTAAGCAA | -0.345
102 | ACGAATTG | -0.132
103 | GTTTTGCA | -0.113
104 | GAGCTTCA | -0.0353
105 | AGTTTCTG | -0.0357
106 | AGCTCTCA | 0.152
107 | CGAACGAA | 0.0784
108 | AAGACATT | -0.0843
109 | GATCGGTA | 0.146
110 | ACGATCTG | -0.213
111 | AGCAGGGC | -0.0274
112 | GCACCGCC | 0.108
113 | GCATGAAA | -0.13
114 | CGCCCTGA | 0.0732
115 | CTGGTATC | -0.0675
116 | GAGCTCCA | 0.0677
117 | ATAATTAA | 0.16
118 | AGCATCAC | -0.186
119 | ACAAGTGT | -0.124
120 | ACATGGAG | -0.133
121 | CTCAGGAC | -0.064
122 | AACTACAT | -0.104
123 | ACTTCTAT | -0.19
124 | CCTCCAGG | -0.269
125 | ATGCACGA | -0.118

Row | Sequence | PBM E-score
126 | CACAAACC | -0.16
127 | GCCAAAAA | 0.0135
128 | ATAAACAC | -0.122
129 | CGCCGATC | 0.206
130 | TGGGACAA | -0.0135
131 | ACGAACAG | 0.0627
132 | ACATTCCT | -0.0606
133 | CATCTCTA | -0.165
134 | AAGAACCG | 0.105
135 | GACCGCAA | 0.155
136 | GCGGTTCA | 0.0936
137 | GCAACCTA | -0.18
138 | CCCCCAAG | -0.203
139 | AGCCGAAC | 0.0822
140 | CCAGCACG | 0.0341
141 | ACCTGTCG | -0.0352
142 | CGTCGAAG | -0.0857
143 | CGTCCATC | 0.153
144 | CGAAGATC | -0.147
145 | AGTGGTAA | -0.155
146 | ATTGAGAA | -0.0251
147 | ACCGTCGA | -0.129
148 | GGCGTAAA | -0.0237
149 | TGGGCCCA | 0.176
150 | TAACCAAA | -0.0915

Row | Sequence | PBM E-score
151 | AAAAGGCT | -0.147
152 | ACTAGGTA | -0.0552
153 | CCGACATA | 0.131
154 | TGACTAAA | -0.156
155 | CTAAATAC | 0.0285
156 | CTTGATGA | 0.0114
157 | CAGCCACG | 0.145
158 | ACAAGGCA | -0.186
159 | ACTACCTG | -0.0227
160 | GAGTGGCA | -0.0517
161 | AGTCTCAA | -0.124
162 | GTACACAC | 0.0147
163 | AGAAATCC | 0.0945
164 | AGGGATTA | -0.132
165 | AATCCGTC | 0.314
166 | CGAAGAAG | -0.0495
167 | GAACGGGA | 0.245
168 | ACCCAAGC | -0.142
169 | CCTGAGCA | -0.0984
170 | ACTACCAC | -0.132
171 | GTGGCGGA | 0.271
172 | CCTTGGAA | -0.0209
